{"source": "the antibiotic and cytotoxicity screens of Wong et al. (2023)", "key": {"[1]": {"tested_on": "HSkMC (human skeletal muscle cells)", "assay": "cytotoxicity call (relative viability < 0.9)", "details": "10 µM"}, "[2]": {"tested_on": "HepG2", "assay": "cytotoxicity call (relative viability < 0.9)", "details": "10 µM"}, "[3]": {"tested_on": "S. aureus RN4220", "assay": "growth inhibition call (relative growth <= 0.2)", "details": "50 µM"}}, "note": "Some of the results follow.", "data": [{"compound": "COc1ccc(S(=O)(=O)N(C)C[C@@H]2Oc3ccc(NS(=O)(=O)c4ccc(F)cc4)cc3CC(=O)N([C@H](C)CO)C[C@@H]2C)cc1", "values": [{"measurement": "cytotoxicity call", "setting": "[1]", "value": "inactive"}, {"measurement": "cytotoxicity call", "setting": "[2]", "value": "inactive"}, {"measurement": "growth inhibition call", "setting": "[3]", "value": "inactive"}]}, {"compound": "CCc1cccc(C(C)C)c1NC(=O)Nc1ccccc1", "values": [{"measurement": "cytotoxicity call", "setting": "[1]", "value": "inactive"}, {"measurement": "cytotoxicity call", "setting": "[2]", "value": "inactive"}, {"measurement": "growth inhibition call", "setting": "[3]", "value": "inactive"}]}, {"compound": "CNC[C@@H]1Oc2cc(C#CC(C)(C)O)ccc2S(=O)(=O)N([C@@H](C)CO)C[C@H]1C", "values": [{"measurement": "cytotoxicity call", "setting": "[1]", "value": "inactive"}, {"measurement": "cytotoxicity call", "setting": "[2]", "value": "inactive"}, {"measurement": "growth inhibition call", "setting": "[3]", "value": "inactive"}]}, {"compound": "O=C(C[C@H]1C=C[C@@H](NC(=O)c2cccc(F)c2)[C@H](CO)O1)NCCN1CCCC1", "values": [{"measurement": "cytotoxicity call", "setting": "[1]", "value": "inactive"}, {"measurement": "cytotoxicity call", "setting": "[2]", "value": "inactive"}, {"measurement": "growth inhibition call", "setting": "[3]", "value": "inactive"}]}, {"compound": "Cc1noc(C)c1S(=O)(=O)Nc1ccc2c(c1)C(=O)N([C@H](C)CO)C[C@@H](C)[C@H](CN(C)Cc1ccccc1)O2", "values": [{"measurement": "cytotoxicity call", "setting": "[1]", "value": "inactive"}, {"measurement": "cytotoxicity call", "setting": "[2]", "value": "inactive"}, {"measurement": "growth inhibition call", "setting": "[3]", "value": "inactive"}]}, {"compound": "C[C@H](CO)N1C[C@H](C)[C@H](CN(C)S(=O)(=O)c2ccc(Cl)cc2)OCCCC[C@H](C)Oc2ccc(NC(=O)NC3CCCCC3)cc2C1=O", "values": [{"measurement": "cytotoxicity call", "setting": "[1]", "value": "inactive"}, {"measurement": "cytotoxicity call", "setting": "[2]", "value": "inactive"}, {"measurement": "growth inhibition call", "setting": "[3]", "value": "inactive"}]}, {"compound": "Cc1cnc(N2C[C@H]3COC[C@@H]3C2)nc1", "values": [{"measurement": "cytotoxicity call", "setting": "[1]", "value": "inactive"}, {"measurement": "cytotoxicity call", "setting": "[2]", "value": "inactive"}, {"measurement": "growth inhibition call", "setting": "[3]", "value": "inactive"}]}, {"compound": "C[C@@H]1CN([C@H](C)CO)C(=O)c2cc(NC(=O)Nc3ccc4c(c3)OCO4)ccc2O[C@H]1CN(C)S(=O)(=O)c1cn(C)cn1", "values": [{"measurement": "cytotoxicity call", "setting": "[1]", "value": "inactive"}, {"measurement": "cytotoxicity call", "setting": "[2]", "value": "inactive"}, {"measurement": "growth inhibition call", "setting": "[3]", "value": "inactive"}]}, {"compound": "C[C@H]1CN([C@@H](C)CO)C(=O)c2cc(NC(=O)Nc3cccc4ccccc34)ccc2O[C@@H]1CN(C)C(=O)Nc1ccccc1", "values": [{"measurement": "cytotoxicity call", "setting": "[1]", "value": "inactive"}, {"measurement": "cytotoxicity call", "setting": "[2]", "value": "inactive"}, {"measurement": "growth inhibition call", "setting": "[3]", "value": "inactive"}]}, {"compound": "CN(C)C1C(O)=C(C(N)=O)C(=O)C2(O)C(O)=C3C(=O)c4c(O)cccc4C(C)(O)C3C(O)C12.Cl", "note": "(stereo not drawn)", "values": [{"measurement": "cytotoxicity call", "setting": "[1]", "value": "inactive"}, {"measurement": "cytotoxicity call", "setting": "[2]", "value": "inactive"}, {"measurement": "growth inhibition call", "setting": "[3]", "value": "inactive"}]}, {"compound": "O=C(CN1CCOCC1)NCC[C@@H]1CC[C@H](NC(=O)Cc2ccccn2)[C@@H](CO)O1", "values": [{"measurement": "cytotoxicity call", "setting": "[1]", "value": "inactive"}, {"measurement": "cytotoxicity call", "setting": "[2]", "value": "inactive"}, {"measurement": "growth inhibition call", "setting": "[3]", "value": "inactive"}]}, {"compound": "C[C@H](CO)N1C[C@H](C)[C@H](CN(C)S(=O)(=O)c2cn(C)cn2)Oc2c(NC(=O)c3ccncc3)cccc2C1=O", "values": [{"measurement": "cytotoxicity call", "setting": "[1]", "value": "inactive"}, {"measurement": "cytotoxicity call", "setting": "[2]", "value": "inactive"}, {"measurement": "growth inhibition call", "setting": "[3]", "value": "inactive"}]}, {"compound": "C[C@H]1CN([C@@H](C)CO)C(=O)Cc2cc(NS(=O)(=O)c3cn(C)cn3)ccc2O[C@H]1CN(C)Cc1ccc2c(c1)OCO2", "values": [{"measurement": "cytotoxicity call", "setting": "[1]", "value": "inactive"}, {"measurement": "cytotoxicity call", "setting": "[2]", "value": "inactive"}, {"measurement": "growth inhibition call", "setting": "[3]", "value": "inactive"}]}, {"compound": "O=C1C(O)=C(O)C(=O)C(O)=C1O", "values": [{"measurement": "cytotoxicity call", "setting": "[1]", "value": "inactive"}, {"measurement": "cytotoxicity call", "setting": "[2]", "value": "active"}, {"measurement": "growth inhibition call", "setting": "[3]", "value": "inactive"}]}, {"compound": "COCC(=O)N(C)C[C@@H]1Oc2cc(-c3ccc(C#N)cc3)ccc2S(=O)(=O)N([C@@H](C)CO)C[C@@H]1C", "values": [{"measurement": "cytotoxicity call", "setting": "[1]", "value": "inactive"}, {"measurement": "cytotoxicity call", "setting": "[2]", "value": "inactive"}, {"measurement": "growth inhibition call", "setting": "[3]", "value": "inactive"}]}, {"compound": "CC(=O)n1cc([C@@H]2C=C(C(=O)N3CCN(Cc4ccccc4)CC3)O[C@H](OCc3ccc(COC(=O)NCCCCCC(=O)NO)cc3)C2)c2ccccc21", "values": [{"measurement": "cytotoxicity call", "setting": "[1]", "value": "inactive"}, {"measurement": "cytotoxicity call", "setting": "[2]", "value": "inactive"}, {"measurement": "growth inhibition call", "setting": "[3]", "value": "inactive"}]}, {"compound": "C[C@H]1CN([C@@H](C)CO)S(=O)(=O)c2ccc(-c3cccc(C(=O)N(C)C)c3)cc2O[C@@H]1CN(C)C(=O)Cc1ccccn1", "values": [{"measurement": "cytotoxicity call", "setting": "[1]", "value": "inactive"}, {"measurement": "cytotoxicity call", "setting": "[2]", "value": "inactive"}, {"measurement": "growth inhibition call", "setting": "[3]", "value": "inactive"}]}, {"compound": "CC(C)NC(=O)Nc1ccc2c(c1)CC(=O)N([C@@H](C)CO)C[C@@H](C)[C@@H](CN(C)C(=O)NC1CCCCC1)O2", "values": [{"measurement": "cytotoxicity call", "setting": "[1]", "value": "inactive"}, {"measurement": "cytotoxicity call", "setting": "[2]", "value": "inactive"}, {"measurement": "growth inhibition call", "setting": "[3]", "value": "inactive"}]}, {"compound": "C[C@H](CO)N1C[C@H](C)[C@@H](CN(C)C(=O)c2ccc3c(c2)OCO3)Oc2ncc(C#CCN(C)C)cc2C1=O", "values": [{"measurement": "cytotoxicity call", "setting": "[1]", "value": "inactive"}, {"measurement": "cytotoxicity call", "setting": "[2]", "value": "inactive"}, {"measurement": "growth inhibition call", "setting": "[3]", "value": "inactive"}]}, {"compound": "COc1ccc2c3c(n(c2c1)C)[C@H](CO)N(Cc1cc(cc(c1)OC)OC)C[C@]13CN(C1)S(=O)(=O)c1cn(cn1)C", "values": [{"measurement": "cytotoxicity call", "setting": "[1]", "value": "inactive"}, {"measurement": "cytotoxicity call", "setting": "[2]", "value": "inactive"}, {"measurement": "growth inhibition call", "setting": "[3]", "value": "inactive"}]}, {"compound": "CC(C)NC(=O)Nc1ccc2c(c1)C(=O)N([C@@H](C)CO)C[C@H](C)[C@@H](CN(C)Cc1ccc(Oc3ccccc3)cc1)O2", "values": [{"measurement": "cytotoxicity call", "setting": "[1]", "value": "inactive"}, {"measurement": "cytotoxicity call", "setting": "[2]", "value": "inactive"}, {"measurement": "growth inhibition call", "setting": "[3]", "value": "inactive"}]}, {"compound": "COc1ccc(cc1)CN1CC[C@]2(CC1)CN([C@@H](CO)c1[nH]c3cc(ccc3c12)OC)C(=O)Nc1ccc(cc1)F", "values": [{"measurement": "cytotoxicity call", "setting": "[1]", "value": "inactive"}, {"measurement": "cytotoxicity call", "setting": "[2]", "value": "active"}, {"measurement": "growth inhibition call", "setting": "[3]", "value": "inactive"}]}, {"compound": "OCC1OC(OCC2OC(O)C(O)C(O)C2O)C(O)C(O)C1O", "note": "(stereo not drawn)", "values": [{"measurement": "cytotoxicity call", "setting": "[1]", "value": "inactive"}, {"measurement": "cytotoxicity call", "setting": "[2]", "value": "inactive"}, {"measurement": "growth inhibition call", "setting": "[3]", "value": "inactive"}]}, {"compound": "CO[C@H](CN(C)S(=O)(=O)c1ccc(Cl)cc1)[C@H](C)CN([C@H](C)CO)S(=O)(=O)c1cccc(Cl)c1", "values": [{"measurement": "cytotoxicity call", "setting": "[1]", "value": "inactive"}, {"measurement": "cytotoxicity call", "setting": "[2]", "value": "inactive"}, {"measurement": "growth inhibition call", "setting": "[3]", "value": "inactive"}]}, {"compound": "CC(C)NC(=O)Nc1ccc2c(c1)CC(=O)N([C@H](C)CO)C[C@@H](C)[C@H](CN(C)S(=O)(=O)c1ccc(F)cc1)O2", "values": [{"measurement": "cytotoxicity call", "setting": "[1]", "value": "inactive"}, {"measurement": "cytotoxicity call", "setting": "[2]", "value": "inactive"}, {"measurement": "growth inhibition call", "setting": "[3]", "value": "inactive"}]}, {"compound": "COc1ccc(S(=O)(=O)Nc2ccc3c(c2)C(=O)N([C@H](C)CO)C[C@H](C)[C@H](CN(C)Cc2ccc(C(=O)Nc4ccccc4N)cc2)OCCCC[C@@H](C)O3)cc1", "values": [{"measurement": "cytotoxicity call", "setting": "[1]", "value": "inactive"}, {"measurement": "cytotoxicity call", "setting": "[2]", "value": "inactive"}, {"measurement": "growth inhibition call", "setting": "[3]", "value": "inactive"}]}]}
